Results as given in PubChem BioAssay AID1457 (National Center for Advancing Translational Sciences (NCATS), 2008).
The whole screen tested about 210,000 compounds, of which about 730 (0.35%) were called active. The shares of active, inactive and inconclusive entries below differ from those in the screen. The call rests on the fitted dose curve; in most records, active means well fitted inhibition curve with a large enough effect; inconclusive means small, poorly fitted or top-dose-only effect; inactive means no such curve, though single readings can be large or run the other way. Potencies beside an inconclusive call are fits to weak or partial responses and may not hold up.
Potency means the concentration at half of the fitted maximal effect.

Assay: qHTS Assay for Identifying the Cell-Membrane Permeable IMPase Inhibitors: Potentiation with Lithium; further: nearly all actives have a fitted effect of over 50% in size;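 on activity, negative = IMPase inhibition: plate controls were basal vehicle for no effect and high inhibitor control for full effect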
Details: CHO-M1 cells, IP1 TR-FRET (IP-One), carbachol + lithium; series mostly up to 59.4 µM; activity, negative = IMPase inhibition: at the top concentration
Method in brief: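 CHO cells stably expressing M1 receptor (2000/well, cultured 16–30 h) treated 30 min at 37C with compound plus low lithium. Cytosolic IP1 by TR-FRET (665/620 ratio and 620 channel) after 10 min lysis; AC50 by Hill fit.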
For `C[N+](C)(CCCCCC[N+](C)(C)CCCN1C(=O)c2cccc3cccc(c23)C1=O)CCCN1C(=O)c2cccc3cccc(c23)C1=O`, the Potency was active: 10 µM.
With `CN(C)c1ccc(C2C=C(c3ccc(Cl)cc3OC(F)F)Nc3ncnn32)cc1` (configuration not stated) the “activity, negative = IMPase inhibition” value was inactive: 6.82%.
With `Cc1ccc(-n2[nH]c(=O)c3cccnc32)cc1` the “activity, negative = IMPase inhibition” value was inactive: 25.1% [at 38.3 µM].
With `Cc1sc(NC(=S)NC(=O)C2CCCCC2)c(C(N)=O)c1C` the Potency was inconclusive: 14.1 µM [inhibitor, single point].
With `CCCCn1c(SCC(=O)c2ccc(OCC)cc2)nc2cc(S(N)(=O)=O)ccc21` the Potency was inconclusive: 14.1 µM [inhibitor, single point].
In the case of `O=c1c2[nH]c3ccccc3c2ncn1CCC1=CCCCC1`, the Potency is reported as inconclusive: 28.2 µM [inhibitor, single point].
For `COc1ccc(/C(O)=C2\C(=O)C(=O)N(CCCN(C)C)C2c2ccccc2F)cc1Cl` (configuration not stated), the Potency was inconclusive: 14.1 µM [inhibitor, single point].
In the case of `COc1ccc(CCNC(=O)COC(=O)c2cc(OC)c(OC)cc2OC)cc1OC`, the Potency is reported as inconclusive: 2.82 µM [inhibitor, partial curve].
For `Cc1ccc(NC(=O)Cn2cc(S(=O)(=O)c3ccccc3)c(=O)c3cc(F)ccc32)cc1`, the Potency was inconclusive: 22.4 µM [inhibitor, single point].
In the case of `COc1ccc(C(C)=O)cc1COC(=O)CNC(=O)c1ccc(Cl)cc1`, the Potency is reported as inconclusive: 14.1 µM [inhibitor, single point].
For `[O-]/C(=C(\C(=S)Nc1cccc2ccccc12)[n+]1ccccc1)c1ccc2c(c1)OCCO2`, the “activity, negative = IMPase inhibition” value was inactive: -6.48% [at 38.3 µM].
In the case of `O=C(c1cccs1)N1C(=O)c2cccc3cccc1c23`, the Potency is reported as inconclusive: 28.2 µM [inhibitor, single point].
For `COCC1=Cc2cc3c(cc2C(C(C(=O)OC)C(=O)OC)N1C(=O)OC)OCO3` (configuration not stated), the Potency was “inactive”.
With `CC(C)(C)c1ccc(C(=O)Nc2ccc(Cl)cc2)cc1` the Potency was inconclusive: 31.6 µM [inhibitor, single point].
With `O=C(O)CSc1ncnc2sc3c(c12)CCC3` the Potency was inconclusive: 15.8 µM [inhibitor, single point].
For `COc1ccc(-c2nc(Cn3c(SCc4ccc(C)cc4)nc4ccncc43)c(C)o2)cc1OC`, the Potency was inconclusive: 10 µM [inhibitor, partial curve, poor fit].
In the case of `COc1ccc(S(=O)(=O)CCc2nnc(NC(=O)c3cccs3)s2)cc1`, the Potency is reported as inconclusive: 31.6 µM [inhibitor, single point].
In the case of `Cc1cnc(NC(=O)c2cc3c(C)nn(-c4ccccc4)c3s2)s1`, the Potency is reported as inconclusive: 28.2 µM [inhibitor, single point].
With `CCN(CC)c1ccc(C2C(C(=O)OC)=C(C)NC(C)=C2C(=O)OC)cc1` the Potency was inconclusive: 11.2 µM [inhibitor, single point].
With `CCC(C(=O)O)N1C(=O)/C(=C/c2cccn2C)SC1=S` (configuration not stated) the “activity, negative = IMPase inhibition” value was inactive: -10.6%.
In the case of `Cc1cccc(NC(=O)NCC(c2cccnc2)N2CCOCC2)c1` (configuration not stated), the “activity, negative = IMPase inhibition” value is reported as inactive: -5.12% [at 38.3 µM].
In the case of `C/C(=N\NC(=O)c1ccccc1)c1ccc(N2CCCCC2)cc1`, the “activity, negative = IMPase inhibition” value is reported as inactive: 2.13%.
In the case of `N#Cc1c(-c2ccccc2)nc(SCC(=O)Nc2nnc(C(F)(F)F)s2)[nH]c1=O`, the Potency is reported as active: 11.2 µM.
For `COc1ccc2[nH]c(=O)c(CN(C)C(=O)C3CCCCC3)cc2c1`, the Potency was active: 28.2 µM.
For `CC(=O)NC(Cc1c[nH]c2ccccc12)C(=O)OCC(=O)Nc1cc(C)on1` (configuration not stated), the “activity, negative = IMPase inhibition” value was inactive: 26.6% [at 38.3 µM].
For `COc1ccc(-c2ccc(-c3nnc(-c4cc(OC)ccc4OC)o3)cc2)cc1`, the Potency was inconclusive: 22.4 µM [inhibitor, single point].
For `CC1CN(c2nc3ccccn3c(=O)c2/C=C(\C#N)S(=O)(=O)c2ccccc2)CC(C)O1` (configuration not stated), the “activity, negative = IMPase inhibition” value was inactive: 21.9% [at 38.3 µM].
For `CS(=O)(=O)c1ccc2nc(NC(=O)Oc3ccccc3)sc2c1`, the Potency was inconclusive: 31.6 µM [inhibitor, single point].
In the case of `Cc1cc(NC(=O)COC(=O)c2oc3c(ccc4ccccc43)c2C)no1`, the Potency is reported as inconclusive: 28.2 µM [inhibitor, single point].
In the case of `CCN(CC)c1ccc(NC(=O)CN2CCN(c3ccc(F)cc3)CC2)cc1`, the “activity, negative = IMPase inhibition” value is reported as inactive: 0.454% [at 38.3 µM].
For `Clc1ccc(/C=N/N2CCN(Cc3ccccc3Cl)CC2)cc1`, the “activity, negative = IMPase inhibition” value was inactive: 11.5%.
For `Cc1ccc(/C=C2/SC(=O)NC2=S)o1`, the Potency was inconclusive: 10 µM [inhibitor, partial curve].
With `CCN(CC)C(=O)c1sc(NC(=O)c2cccc([N+](=O)[O-])c2)c(C#N)c1C` the “activity, negative = IMPase inhibition” value was inactive: 1.22%.
For `COc1ccc2nc(SCC(=O)Nc3ccc4sc(C)nc4c3)c(C#N)cc2c1`, the Potency was inconclusive: 28.2 µM [inhibitor, single point].
For `CC(C)C1OC(c2cccc(NC(=O)c3cccs3)c2)OCC1(C)C` (configuration not stated), the Potency was inconclusive: 3.98 µM [inhibitor, single point].
In the case of `Cc1ccccc1-c1nn[nH]n1`, the “activity, negative = IMPase inhibition” value is reported as inactive: -24.4% [at 38.3 µM].
In the case of `COc1ccc(/C(O)=C2/C(=O)C(=O)N(CCN3CCOCC3)C2c2cccnc2)cc1OC` (configuration not stated), the Potency is reported as inconclusive: 11.2 µM [inhibitor, partial curve].
With `CC1(C)Cc2nc3oc4c(NCc5ccccc5)ncnc4c3cc2CO1` the “activity, negative = IMPase inhibition” value was inactive: -1.18% [at 38.3 µM].
With `CC1=C/C(=N\OS(=O)(=O)c2ccccc2)C(C)=CC1=O` the “activity, negative = IMPase inhibition” value was inactive: 67.1% [at 38.3 µM].
For `O[C@]1(c2ccccc2)c2ccccc2NC2=NCCN21`, the “activity, negative = IMPase inhibition” value was inactive: 6.85%.
In the case of `O=C(O)CC1(CC(=O)Nc2ccc3ccccc3c2)CCCCC1`, the Potency is reported as inconclusive: 5.62 µM [inhibitor, single point].
In the case of `O=S(=O)(c1ccc(Br)cc1)c1nc(-c2ccccc2)oc1NCc1cccnc1`, the Potency is reported as inconclusive: 28.2 µM [inhibitor, single point].
With `CC1CCCC(NC(=O)COC(=O)c2ccc(S(=O)(=O)N3CCOCC3)cc2)C1C` (configuration not stated) the Potency was inconclusive: 11.2 µM [inhibitor, single point].
For `O=C(CSc1nnc(-c2ccccc2)n1Cc1ccco1)NCc1ccc2c(c1)OCO2`, the Potency was inconclusive: 12.6 µM [inhibitor, partial curve].
For `COc1ccc(/C=C2/CCOC2=O)cc1`, the Potency was inconclusive: 28.2 µM [inhibitor, single point].
In the case of `CCSc1ccc(-c2nn(-c3ccccc3)cc2/C=C(/C#N)C(=O)NC)cc1`, the Potency is reported as inconclusive: 12.6 µM [inhibitor, single point].
For `CCOc1nc(-c2ccc(OC)cc2)ccc1-c1noc(C)n1`, the Potency was inconclusive: 28.2 µM [inhibitor, single point].
In the case of `COc1ccc(-c2cc(C(F)(F)F)nc(SCC(=O)N3CCOCC3)n2)cc1OC`, the Potency is reported as inconclusive: 12.6 µM [inhibitor, single point].
With `COC(=O)c1ccc(C(NC(=O)OCc2ccccc2)/C(F)=C/[C@@H](C)C(=O)NCc2ccc(-c3ccccc3)cc2)cc1` (some centres not stated) the Potency was “inactive”.
With `O=C(Cn1c(=S)[nH]c2ccccc2c1=O)N1CCc2ccccc2C1` the Potency was inconclusive: 11.2 µM [inhibitor, single point].
In the case of `CC(C)NC(=O)c1onc(CSc2ccc(F)cc2)c1C(=O)O`, the “activity, negative = IMPase inhibition” value is reported as inactive: -5.44% [at 38.3 µM].
In the case of `O=C(NCc1cccs1)[C@@H]1CSC2c3ccccc3C(=O)N21` (some centres not stated), the “activity, negative = IMPase inhibition” value is reported as inactive: -10.5% [at 38.3 µM].
For `Cc1ccc(S(=O)(=O)NCCNC(=O)c2nonc2N)cc1`, the “activity, negative = IMPase inhibition” value was inactive: -7.59%.
In the case of `O=C(Cc1cccs1)NCc1ccccc1`, the “activity, negative = IMPase inhibition” value is reported as inactive: 2.93% [at 38.3 µM].
With `CCN1CN(Cc2ccco2)CNC1=S` the “activity, negative = IMPase inhibition” value was inactive: -7.51%.
In the case of `O=C(O)Cc1sc(-c2ccccc2Cl)nc1-c1ccccc1`, the Potency is reported as active: 5.01 µM.
For `O=C(NC1CCS(=O)(=O)C1)C1C2CC3CC(C2)CC1C3` (configuration not stated), the Potency was inconclusive: 1.58 µM [inhibitor, partial curve].
For `CCOC(=O)c1c(C)oc2cc(Br)c(OCC(N)=O)cc12`, the Potency was inconclusive: 11.2 µM [inhibitor, single point].
For `COc1ccc(C2C(C(N)=O)=C(C)Nc3nc(-c4ccccc4Cl)nn32)c(OC)c1` (configuration not stated), the “activity, negative = IMPase inhibition” value was inactive: 0.334%.
In the case of `CN1CCCc2cc(C#N)c(=O)[nH]c21`, the Potency is reported as inconclusive: 12.6 µM [inhibitor, single point].
With `CCc1ccc(N2CC(O)=C(c3nc4ccccc4c(=O)[nH]3)C2=N)cc1` the Potency was inconclusive: 14.1 µM [inhibitor, single point].
In the case of `CCOC(=O)N1CCN(C(=O)c2cc3c(s2)-c2ccccc2OC3)CC1`, the Potency is reported as inconclusive: 25.1 µM [inhibitor, single point].
For `N/C(=N\OC(=O)COc1ccc2ccccc2c1Br)c1cccnc1`, the Potency was inconclusive: 10 µM [inhibitor, partial curve].
With `CCNc1ncc2nc(-c3ccc(F)cc3)c(=O)n(CCOC)c2n1` the Potency was inconclusive: 2.24 µM [inhibitor, partial curve, poor fit].
For `COc1ccc(C(=O)N2CCC[C@@]3(CCN(C(=O)Nc4cccc(C#N)c4)C3)C2)cc1`, the Potency was inconclusive: 14.1 µM [inhibitor, single point].
For `Cc1cccc(C)c1NC(=O)COc1ccccc1C(=O)Nc1ccc(Br)cn1`, the Potency was inconclusive: 14.1 µM [inhibitor, single point].
With `Cc1nn(-c2cccc3cccnc23)c(=O)c2ccccc12` the “activity, negative = IMPase inhibition” value was inactive: 29.1% [at 38.3 µM].
In the case of `O=C(COC(=O)c1sc2ccccc2c1Cl)NC1CCCCC1`, the Potency is reported as inconclusive: 11.2 µM [inhibitor, partial curve].
In the case of `CCc1cc2c(=O)c(-c3cnn(-c4ccccc4)c3)c(C)oc2cc1OCC(=O)Nc1cccc(C)c1`, the Potency is reported as inconclusive: 25.1 µM [inhibitor, single point].
For `Cc1cccc(C(=O)NCC(=O)N2CC(=O)Nc3ccccc32)c1`, the Potency was inconclusive: 3.98 µM [inhibitor, full curve].
With `O=C(Nc1ccc(O)c(-c2nc3ccccc3s2)c1)c1cccs1` the Potency was inconclusive: 11.2 µM [inhibitor, partial curve].
For `COc1ccc(C(=O)N2CCC3(CCCN(C(=O)Nc4cccc(C#N)c4)C3)CC2)cc1`, the “activity, negative = IMPase inhibition” value was inactive: -31.4%.
